Laboratory results published in PubChem BioAssay AID1347417 (National Center for Advancing Translational Sciences (NCATS), 2020).
About 5,300 (4.4%) of roughly 120,000 compounds were called active. This list was built around the results that the source calls inconclusive (neither active nor inactive); the mix of calls is not that of the screen. Calls follow the shape of the dose curve; as a rule, active = well fitted inhibition curve with a large enough effect; inconclusive = small, poorly fitted or top-dose-only effect; inactive = no such curve, though single readings can be large or run the other way. Potencies of inconclusive entries are doubtful fits and often do not repeat.

Experiment: qHTS Primary assay for Inhibitors of Plasmodium falciparum Dd2 growth in vitro; also: nearly all actives have a fitted effect of over 65% in size;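 as to activity, negative = inhibition: plate controls were DMSO vehicle for no effect and reference drug for full effect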
Details: P. falciparum Dd2 growth, SYBR Green, 72 h; activity, negative = inhibition: at 28.9 µM (top of the series) unless noted; series mostly up to 28.9 µM
In short: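 Readout: SYBR Green fluorescence, 485 nm excitation, 535 nm emission, after ~16 h lysis at 37C. Before that, Dd2-infected red cells (2.5% hematocrit) grew 72 h with compound, 29 uM top final concentration.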
Potency is read from the fitted curve at half-maximal effect; tags tell the direction and shape of the fitted curve.

| SMILES | Potency | activity, negative = inhibition |
| --- | --- | --- |
| COc1ccc(-c2cc(N3CCC(NC(=O)c4ccc(C)s4)CC3)n[nH]2)cc1 | inconclusive: 1.41 µM [inhibitor, partial curve, poor fit] | – |
| COc1ccc(Cl)cc1NC(=O)Cn1nc(Cc2ccncc2)c2ccccc2c1=O | inconclusive: 11.2 µM [inhibitor, single point] | – |
| c1cncc(CN2CC(Oc3ccc4c(c3)OCO4)C2)c1 | inconclusive: 12.6 µM [inhibitor, single point] | – |
| CCc1ccccc1NC(=O)C1CCN(C(=O)N2CC(C)Oc3ccc(Cl)cc32)CC1 (configuration not stated) | inconclusive: 8.91 µM [inhibitor, partial curve, poor fit] | – |
| C[C@]1(CO)[C@H]2Cc3sc(NC(=O)c4c(F)cccc4F)nc3[C@@H](CC(=O)NC3CCCC3)[C@]2(C)CC[C@H]1O | active: 5.01 µM | – |
| COCCOc1ccnc(-c2noc([C@@H]3CCCN3Cc3ccc(S(C)(=O)=O)cc3)n2)c1 | inconclusive: 17.8 µM [inhibitor, single point] | – |
| O=C([C@@H]1C[C@H](Oc2ccccc2)CN1)N1CCOCC1 | inconclusive: 14.1 µM [inhibitor, single point] | – |
| Cc1cc(CNC(=O)[C@@H]2CCC[C@@H](NC(=O)C3CCOCC3)CN(C)C(=O)C2)no1 | inactive | – |
| COCCCN1CCCC2(CCN(C(=O)NCc3cccc(F)c3)C2)C1=O (configuration not stated) | inactive | – |
| COc1cccc(CN(C)CC(C)N2CCOCC2)c1O (configuration not stated) | inconclusive: 12.6 µM [inhibitor, partial curve, poor fit] | – |
| COCc1nc(-c2ccc(OC3CN(C(=O)c4cc(C)n(C)n4)C3)cc2)no1 | active: 7.94 µM | – |
| Cc1c(Cl)cccc1-n1ncc(C(=O)NCc2cccs2)c1C1CCN(C(=O)OC(C)(C)C)CC1 | inconclusive: 10 µM [inhibitor, partial curve, poor fit] | – |
| NC1CCCCN(C(=O)CCc2n[nH]c3c2CCCC3)C1 (configuration not stated) | inconclusive: 0.112 µM [inhibitor, full curve, poor fit] | – |
| Cc1ccc(-c2cc3c(=O)n(CCNC(=O)c4ccc(N(C)C)cc4)ccn3n2)cc1C | inconclusive: 1.41 µM [inhibitor, partial curve, poor fit] | – |
| COc1ccc(Cn2c(C3CCN(C(=O)Cc4ccccc4Cl)CC3)n[nH]c2=O)cc1 | inconclusive: 10 µM [inhibitor, single point] | – |
| CC1(c2cccnc2)N(Cc2ccccc2)C(=O)OC12CCN(C(=O)CN1CCOCC1)CC2 (configuration not stated) | inactive | – |
| N#Cc1ccc(S(=O)(=O)N2CCCCCCNC(=O)CC2c2ccccc2)cc1 (configuration not stated) | inconclusive: 20 µM [inhibitor, single point] | – |
| O=C(c1ccc(Cl)cc1)N1CCC(N2CCCNC2=O)CC1 | inactive | – |
| O=C(CN1C(=O)COc2ccc(S(=O)(=O)N3CCCC3)cc21)N1CCN(c2cccc(C(F)(F)F)c2)CC1 | inconclusive: 10 µM [inhibitor, single point] | – |
| COc1cccc(NC(=O)N2CC[C@H]3CC(=O)N(c4ccccc4)CC[C@H]3C2)c1 | inconclusive: 3.98 µM [inhibitor, partial curve] | – |
| c1ccc(CCc2noc(-c3ccc(NCCN4CCCC4)nc3)n2)cc1 | inconclusive: 14.1 µM [inhibitor, single point] | – |
| CCN(CC)S(=O)(=O)c1ccc(C(=O)NCCSc2c(-c3ccc(C)cc3)[nH]c3ccccc23)cc1 | active: 10 µM | – |
| COc1ccc(C(=O)NC2CCN(c3cc(C(F)(F)F)nc(C)n3)CC2)cc1 | active: 14.1 µM | – |

| SMILES | Potency | activity, negative = inhibition |
| --- | --- | --- |
| COc1ccc(CCNC(=O)c2ccc3c(c2)N(Cc2ccccc2F)C(=O)c2ccccc2S3=O)cc1OC (configuration not stated) | inconclusive: 3.16 µM [inhibitor, full curve, poor fit] | – |
| O=C1NCc2ccccc2CC12CCCCN2Cc1ccc(CO)o1 (configuration not stated) | inconclusive: 17.8 µM [inhibitor, partial curve, poor fit] | – |
| CCCS(=O)(=O)N1CCC2(CC1)CC1C(=O)NCCN1C2 (configuration not stated) | inactive | – |
| CCOc1ccc(CC(=O)NCCn2ccn3nc(-c4ccc(C)cc4C)cc3c2=O)cc1 | inactive | – |
| CN(CCc1ccccn1)C[C@H]1CN2CC[C@H]1C[C@@H]2CNC(=O)c1ccco1 | inconclusive: 15.8 µM [inhibitor, single point] | – |
| Cc1ccc(CNC(=O)CSc2c3c(nc4cc(Cl)ccc24)CCCC3)cc1 | inconclusive: 12.6 µM [inhibitor, single point] | – |
| COCCN1CC(CO)C2(CCN(Cc3ccccc3C(F)(F)F)CC2)C1 (configuration not stated) | inconclusive: 7.94 µM [inhibitor, partial curve, poor fit] | – |
| Cc1ccc(S(=O)(=O)N2CCCC(Cn3c(C4CC4)nc4cccnc43)C2)cc1C (configuration not stated) | inconclusive: 5.62 µM [inhibitor, partial curve, poor fit] | – |
| C[S+](=O)([O-])N1CCCC(c2nnc3n2CCNC3)C1 (configuration not stated) | inactive | – |
| Cc1ccc(NC(=O)CCNS(=O)(=O)c2cccc3nonc23)cc1Cl | inconclusive: 10 µM [inhibitor, partial curve] | – |
| O=C(NCCN1CCCC1)c1c(OCC2CC2)cc(=O)n2c1CCOCC2 | inactive | – |
| Cn1nccc1C(=O)N1CCCC(c2nn[nH]n2)C1 (configuration not stated) | inactive | – |
| COc1ccc(-n2c(-c3ccc(C)cc3)cc3c2CC(C)(C)CC3=O)c(OC)c1 | active: 12.6 µM | – |
| O=C1NN=C(C2CC2)C12CCN([S+](=O)([O-])c1cccc(C(F)(F)F)c1)CC2 | inactive | – |
| CN1C(=O)c2ccccc2Sc2ccc(NC(=O)NCc3cccc(Cl)c3)cc21 | inconclusive: 12.6 µM [inhibitor, partial curve, poor fit] | – |
| COc1ccc(-c2nc(C3CC3)nc3c2CN(C(=O)c2ccccn2)CC3)cc1 | – | inconclusive: -49% [inhibitor] |
| CCNC(=O)C1CCN(c2nnc(C)c3c(C)n(-c4ccc(OC)cc4)nc23)CC1 | active: 8.91 µM | – |
| Cc1cccc(NC(c2ccccc2C)c2ccc3ccc(C)nc3c2O)n1 (configuration not stated) | active: 5.01 µM | – |
| COc1ccc(C(=O)N2CCC(n3cc(-c4nc(C)no4)nn3)CC2)c(C)c1 | inactive | – |
| CCCCn1c(NCc2cc(Br)ccc2O)nc2ccccc21 | inconclusive: 3.98 µM [inhibitor, partial curve, poor fit] | – |
| Cc1ccccc1C(=O)N[C@H]1[C@H](O)[C@H](O)C[C@@H]1c1cccnc1 | inactive | – |
| COc1ccccc1-c1nc(C(=O)NCCc2ccc(Cl)cc2)n2ccncc12 | inconclusive: 8.91 µM [inhibitor, single point] | – |
| COc1ccc(C(=O)N2CCc3ccc(C(=O)NCc4ccc(C)o4)cc32)cc1 | inconclusive: 6.31 µM [inhibitor, partial curve, poor fit] | – |

| SMILES | Potency | activity, negative = inhibition |
| --- | --- | --- |
| C[S+](=O)([O-])NC1CC2(CCN(C(=O)Cc3c[nH]c4ccccc34)CC2)c2ccccc21 (configuration not stated) | – | inconclusive: -180% [inhibitor] |
| CCn1cc(C(=O)NCc2ccc(C)cc2)c(=O)c2cc(S(=O)(=O)N(C)C3CCCCC3)ccc21 | inconclusive: 20 µM [inhibitor, single point] | – |
| CCN(CC)c1nc2c(S(=O)(=O)c3cccc(Cl)c3)nnn2c2ccsc12 | inconclusive: 11.2 µM [inhibitor, single point] | – |
| CCC(C)Nc1oc(-c2ccc(COc3ccc(Cl)cc3)o2)nc1C#N (configuration not stated) | inconclusive: 17.8 µM [inhibitor, single point] | – |
| CCC(=O)N(C1CCOCC1)C1CCN(Cc2cc(F)c(F)c(F)c2)CC1 | inconclusive: 20 µM [inhibitor, single point] | – |
| CCOCC(=O)N1CCCN(C(=O)C2CC2)c2ccccc21 | inactive | – |
| CC1=C[C@@H](CNC(=O)Cn2cnnn2)[C@H](C(C)C)C[C@H]1Cc1nc2ccncc2[nH]1 | inconclusive: 11.2 µM [inhibitor, partial curve, poor fit] | – |
| CNC(=O)N1CCC(C2CCN(Cc3cc(F)c(F)c(F)c3)C2)CC1 (configuration not stated) | inconclusive: 17.8 µM [inhibitor, single point] | – |
| COc1ccc(S(=O)(=O)c2c(SC)nn(CC(=O)Nc3cccc(C)c3C)c2N)cc1 | inconclusive: 11.2 µM [inhibitor, single point] | – |
| COc1ccccc1N1CCCc2ncc(C(=O)N3CCN(C(C)=O)CC3)cc21 | inactive | – |
| COc1cc(-c2nc(-c3cccc(Cl)c3)c(-c3ccccc3)[nH]2)cc(OC)c1OC | active: 10 µM | – |
| O=C1NC2(Cc3ccccc31)CN(Cc1ccc(C(F)(F)F)cc1)C2 | inactive | – |
| CC(C)n1cnnc1-c1nn(C)c2c1CN(C(=O)CC1CCCC1)CC2 | inconclusive: 8.91 µM [inhibitor, partial curve] | – |
| CCCS(=O)(=O)N1CCC(Cc2nncn2-c2ccccc2)CC1 | inactive | – |
| O=C(NC1CC1)[C@@H]1CN(Cc2c(F)cccc2Cl)C[C@H]1CO | inconclusive: 8.91 µM [inhibitor, partial curve] | – |
| O=C(c1ccoc1)N1[C@H]2CC[C@@H]1c1cnc(-c3ccccc3)nc1C2 | inconclusive: 17.8 µM [inhibitor, single point] | – |
| CN(c1ccccc1)c1cc(=O)c2ccnc(N3CCOCC3)c2o1 | inactive | – |
| C=CCC1(CO)CCCN(C(=O)CCCOc2ccccc2)C1 (configuration not stated) | inactive | – |
| Cc1[nH]cnc1CSCCn1ccnc1-c1nccn1C | inconclusive: 0.1 µM [inhibitor, full curve, poor fit] | – |
| COCCC1(NC(=O)c2ccccc2)CCN(Cc2ccc(F)cc2F)CC1 | inconclusive: 15.8 µM [inhibitor, partial curve, poor fit] | – |
| CC(=O)N1CCC(Cc2nc(-c3ccccc3)n[nH]2)CC1 | inactive | – |
